# Whole data set: some 33,000 sequences, median “E-score (-0.5 to 0.5)” near -0.021, cut for the highest 2% near 0.32. The list shows a part of the results.
# Target: T1, Zap1 (UniProt P47043)
# T1 sequence: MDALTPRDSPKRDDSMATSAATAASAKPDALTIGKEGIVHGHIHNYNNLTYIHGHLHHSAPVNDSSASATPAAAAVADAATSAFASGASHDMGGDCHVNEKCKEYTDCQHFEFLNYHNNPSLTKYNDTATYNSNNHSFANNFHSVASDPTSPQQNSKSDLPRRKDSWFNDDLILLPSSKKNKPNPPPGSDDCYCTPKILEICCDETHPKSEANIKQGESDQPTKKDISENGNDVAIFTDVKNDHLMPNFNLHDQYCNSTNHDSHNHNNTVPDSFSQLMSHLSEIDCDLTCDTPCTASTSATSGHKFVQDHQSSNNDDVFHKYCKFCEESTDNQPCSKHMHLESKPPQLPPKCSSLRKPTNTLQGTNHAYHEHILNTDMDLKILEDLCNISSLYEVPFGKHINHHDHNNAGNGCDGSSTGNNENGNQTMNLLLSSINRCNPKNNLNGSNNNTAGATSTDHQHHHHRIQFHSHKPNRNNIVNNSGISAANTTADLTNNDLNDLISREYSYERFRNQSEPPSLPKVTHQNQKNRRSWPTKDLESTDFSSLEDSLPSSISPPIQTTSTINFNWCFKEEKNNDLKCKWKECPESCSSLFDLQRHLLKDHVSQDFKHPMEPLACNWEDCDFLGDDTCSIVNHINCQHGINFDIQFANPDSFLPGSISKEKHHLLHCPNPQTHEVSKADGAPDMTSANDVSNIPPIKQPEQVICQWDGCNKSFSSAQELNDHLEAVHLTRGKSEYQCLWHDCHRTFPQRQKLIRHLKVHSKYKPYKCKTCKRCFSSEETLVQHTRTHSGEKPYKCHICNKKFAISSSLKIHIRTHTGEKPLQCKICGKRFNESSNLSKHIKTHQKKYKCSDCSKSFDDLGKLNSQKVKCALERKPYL
# Test: PBM E-score (8-mer binding enrichment) (E-score (-0.5 to 0.5)); higher = stronger / more preferred TF binding; most listed sequences are background and not binding sites
# Settings: protein concentration: 200 nM; construct: GST-full length
# Method in brief: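 Bound GST-tagged yeast transcription factors, applied at about 100-200 nM to double-stranded universal all-10-mer Agilent arrays, were detected with fluorescent anti-GST. Scans were normalised with masliner. A modified Wilcoxon-Mann-Whitney statistic, the E-score, was assigned to each ungapped eight-base word pooled with its reverse complement by the Universal PBM Analysis Suite.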
row,Sequence,PBM E-score
1,GGTTCTTA,0.217
2,AGATCACT,0.152
3,GGCCGGGA,-0.00587
4,CAGATAGC,-0.143
5,TACGTCTA,-0.00108
6,AGGTCGTC,0.0799
7,AAGTACTT,0.276
8,AATCACAT,-0.0878
9,CGGAAGGA,-0.257
10,ACTGATAC,-0.127
11,AAATCTGC,-0.0255
12,GCTCGCCC,-0.173
13,ATTGACAC,0.021
14,ATGGTTCA,0.119
15,CTAGCATA,-0.115
16,GATAACTA,0.231
17,CTGAGCGC,-0.201
18,AAGGAGTC,-0.158
19,AACCCGTA,0.27
20,CTTGATCC,0.0074
21,AAATGGTA,0.201
22,AAAATGCC,0.0196

row,Sequence,PBM E-score
1,CCTTAGAA,0.211
2,GTTCACAA,0.0509
3,GCTGAGAC,-0.0399
4,GCTAATGA,-0.0982
5,AGGCCTAT,0.00314
6,CGAGCTAA,-0.031
7,GATGCAAA,0.0934
8,GATGCCGA,-0.0475
9,GGCGTGAC,-0.0379
10,GCTGGAGA,-0.258
11,AACATCCT,-0.0473
12,GCCGGGTA,0.075
13,AGACGGCT,-0.264
14,GTATAACA,0.0711
15,ACACTTGC,-0.0103
16,CGTCCGGC,-0.0468
17,AAACCGGT,0.0353
18,CCGGTTCA,-0.139
19,GAGGTCAA,0.21
20,GCGGTCCA,0.0181
21,AGCGTAGG,-0.193
22,GAAGAGGC,-0.0597

row,Sequence,PBM E-score
1,ATCCAACC,-0.0092
2,GACTGAGC,-0.219
3,CATCATAC,0.165
4,GGGGTCGA,-0.0279
5,ATTATCGA,-0.112
6,ACGAAGCA,0.0109
7,ATATCGAG,-0.15
8,CCCTCCTA,-0.229
9,AATGCTCT,-0.232
10,GCAAATAC,0.0671
11,GATGGAAC,-0.188
12,CATTATAA,0.12
13,AGAGTTAC,0.0508
14,GCCTAGTA,0.0248
15,AATGTTTG,0.0436
16,AAGCATAG,-0.224
17,ACAGTTGG,-0.101
18,AATTGTCA,0.136
19,CGGGGCCC,0.216
20,AGATTCAA,-0.0176
21,CAATATTG,0.109
22,GTAACGAA,0.159

row,Sequence,PBM E-score
1,AACATGCT,-0.187
2,TAGACAGA,0.053
3,ACCGATTG,0.0283
4,CCCATACG,-0.106
5,CGTATGCA,-0.0881
6,GAAAGCTC,-0.183
7,CAGCCAGA,-0.16
8,AGAGAGGC,-0.284
9,AAAAGAGT,-0.00807
10,GTACATGA,0.0396
11,GAGGGTCA,0.397
12,TCTAGTCA,-0.0484
13,CTGGCATA,-0.0691
14,CATAAGCC,0.0614
15,CAACGAGG,0.0648
16,CACCACGC,-0.158
17,GCTCTTAC,-0.0996
18,CAACGAGA,-0.0227
19,CCGCGGTA,0.265
20,TGCTCAAA,-0.079
21,AAGCGTGG,-0.23
22,AGAACGCT,-0.25

row,Sequence,PBM E-score
1,GACACGGA,-0.139
2,CCAATACG,-0.155
3,GACCTACA,0.0563
4,AAGAAATT,0.0664
5,CTTACCCA,0.0429
6,TTCCAGAA,0.0549
7,CTGCAATA,-0.0259
8,GAGATACA,0.186
9,AGGATCAG,-0.211
10,ACTTCAGC,-0.202
11,TGTGACAA,0.0777
12,GGATTACC,0.172
13,GATAGGAA,-0.00552
14,ACAGCAAC,-0.00827
15,GTTTCCTA,0.142
16,ATCCTAAG,-0.00974
17,AAAACGGA,0.0457
18,CGTATCAC,-0.173
19,CATTGTAC,-0.0163
20,GATACAAA,0.152
21,CATGGTAG,0.0433
22,AAAGACGT,-0.105
